Measured values from PubChem BioAssay AID588692 (Broad Institute, 2011).
Hit rate of the full screen: of about 360,000 compounds, about 830 (0.23%) were called active. Inconclusive means that the source gave no clear call. Such entries were picked first, then a sample of the others.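 The calls were made as follows: active = mean luciferase reporter signal, scaled so untreated is 0 and the glycosylation-blocking control 100, at or above a set limit in every replicate; inconclusive = mean reaches the limit but not every replicate does; inactive = mean below the limit.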

Test: increase of ERlucT glycosylation luciferase signal, primary screen, N-linked glycosylation inhibitor project, D54 ERlucT cells, luminescence, set 2 (AID 588692);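 also: luciferase carries N-glycosylation sites so blocking glycosylation raises the light; 0% = median of neutral control wells and 100% = median of 100 nM tunicamycin wells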
Conditions: 24 h, at 12.5 µM, stronger effect = higher value, percent of 100 nM tunicamycin response

Compound | reporter increase
CC(C)(C)c1ccc(C(=O)Nc2ccc([N+](=O)[O-])cn2)cc1 | inactive: -5.96%
Cn1c(=O)c([N+](=O)[O-])c(-n2ccnc2)c2ccccc21 | inconclusive: 25%
COc1cc2c[n+](C)c3c4ccccc4ccc3c2cc1OC | active: 33.9%
O=C1CC(C(=O)N2CCCc3ccccc32)CN1c1ccc(F)cc1 (stereo not given) | inactive: -4.65%
O=C1N[C@H]2CC=C[C@H]2N(Cc2cccs2)c2ccccc21 | active: 54.1%
COc1cc(/C=C/C(=O)c2ccc(C)c([N+](=O)[O-])c2)cc(OC)c1O | inconclusive: 25.7%
Cc1cccc(N(C)S(=O)(=O)c2ccc(-c3cc(C)no3)s2)c1 | inconclusive: 25.5%
Cc1ccc(COc2cccc(/C=N/NC(=O)c3nnn(-c4nonc4N)c3C)c2)cc1 | inconclusive: 51.6%
COC(=O)c1ccc(COc2ccccc2/C=C(\C#N)C(=O)Nc2c(C)cccc2C)cc1 | active: 36.7%
Cn1c(SCC(=O)N2CCc3ccccc3C2)nnc1-c1ccncc1 | inactive: 4.01%
O=C(OCC(=O)c1c[nH]c2ccccc12)c1cccc([N+](=O)[O-])c1 | inactive: 0.0765%
COc1ccc(NS(=O)(=O)c2cc(Br)cc3c2N(C(C)=O)CC3)cc1 | inconclusive: 29.2%
COc1ccc(C(=O)Nc2sc(C)c(C)c2CN2CC(C)OC(C)C2)cc1 (stereo not given) | inconclusive: 29.2%
Cc1ccsc1CNc1ncnc2ccc(-c3c(C)noc3C)cc12 | inconclusive: 25.1%
CCOc1ccc(NC(=O)NNC(=O)C(C)Oc2ccccc2OC)cc1 (stereo not given) | inactive: 0.63%
Nc1cccc2nc3ccccc3cc12 | inconclusive: 25.1%
COc1cccc(CNC2CCCC2)c1 | inactive: 1.65%
COc1ccc2nc(NC(=O)c3ccc([N+](=O)[O-])o3)sc2c1 | inconclusive: 33.3%
c1ccc2c(c1)oc1c(-c3ccc4nccn4c3)cccc12 | inconclusive: 26.2%
Cc1ccc(C)c(Cn2nnc3c(=O)[nH]c(C4CCN(C(=O)c5ccco5)CC4)nc32)c1 | inconclusive: 30.5%
Cc1ccccc1NCC(=O)N=Nc1c(O)[nH]c2ccc([N+](=O)[O-])cc12 | inconclusive: 33.6%
CCO[C@@H]1OC(C(=O)NCc2nc3ccccc3[nH]2)=C[C@H](C2CC2)[C@H]1CCCO | inconclusive: 26.8%
CNc1ccc(Br)cc(C(=O)/C=C/c2ccc(Cl)cc2Cl)c1=O | inconclusive: 33.3%
C=C(C)C(=O)N1CCN(C(=O)C(=C)C)c2ccccc21 | inactive: 1.72%
COC(=O)c1ccc(-c2nc3ccccc3[nH]2)cc1 | inactive: -12.1%
